Measurements: a collection of fitness landscapes (doi:10.1016/j.celrep.2020.107928)
The full ranking holds about 81,000 sequences; the median of “one-hybrid fitness for binding parS DNA” is about -0.17, and the highest 2% start at about 0.51. The list shows a part of the results.

B1: Caulobacter ParB omega fusion; a variant is named by its letters at X, in order, B8GW30 (parent)
chain: MESVVVGEPGMSEGRRGLGRGLSALLGEVDAAPAQAPGEQLGGSREAPIEILQRNPDQPRRTFREEDLEDLSNSIREKGVLQPILVRPSPDTAGEYQIVAGERAWRAAQRAGLKTVPIMVRELDDLAVLEIGIIENVQRADLNVLEEALSYKVLMEKFERTQENIAQTIGKSXSHVANXMRLLXLPDEVQSYLVSGELTAXHARAIAAAADPVALAKQIIEGGLSVRETEALARKAPNLSAGKSKGGRPPRVKDTDTQALESDLSSVLGLDVSIDHRGSTGTLTITYATLEQLDDLCNRLTRGI

Variants of: B1
Assay: one-hybrid fitness for binding parS DNA (scaled: cognate 1, non-cognate 0); higher = stronger binding
Details: with parS DNA site
How it was run: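 Pre- and post-selection plasmids were Illumina-sequenced, three replicate libraries were pooled, and any variant with under 10 reads was removed. The libraries were Caulobacter ParB with four specificity codons randomised, selected in E. coli USO through a HIS3 reporter whose site is 19 bp from the promoter. Cells grew 48 hours at 37°C on M9 without histidine, with 0.1 mM IPTG and 5 mM 3-AT. Fitness is the log change in variant-to-wild-type read ratio, rescaled against cognate and non-cognate.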

one-hybrid fitness for binding parS DNA, 0.981:
RTMS

one-hybrid fitness for binding parS DNA, ≤ 0.2:
YFGT
QKKQ
KFTR
PIPS
GACF
GVLR
NHKL
QSCL
VVPI
AKIL
YKQV
WSPR
EHHV
ISCG
YACK
PYNM
GGGS
MSSM
WPPA
IGAV
VEYC
QPVT
STMC
CWGR
TRLY
KVVG
GTHF
PRGA
HNPC
VMDS
FDSA
SMTV
NENR
KRRN
YYDR
FPVY
VASG
RGPP
TIAG
VTQV
PFSI
FDVC
AGWS
AGCC
CVPM
PSRK
PRLK
KQSA
LWQY
RPAP
ADND
TISR
DIFG
AHQP
RVCV
DGST
KGQR
PDCA
LSKV
GPPH
LQHI
VVYD
YAGY
QLID
YPYC
SAEN
THEG
PRES
PPHS
HDRG
QAAY
LYHH
VSHG
MTKP
LTRT
SVKW
ASKD
MPKT
FQMG
TECL
DNLR
YYWY
ESKI
VWVC
SKPA
CCPY
WIKC
RGLF
NTLS
NNNF
QACG
PWTR
HVQQ
SLNC
GGIG
RQRV
GLIG
VSAS
LSIY
RFEV
ISTS
PQPL
TAFI
PMMS
VESS
GDCG
DLHR
LYCY
EIQL
HRVK
KATQ
YEYS
AKCG
REPH
YNQS
DQQT
EVWT
DYKL
AFNW
PCIR
IGHT
VLSE
LLDK
TMLA
KKKT
ELNL
CIPR
AEQS
YNPE
QHEC
CTDH
TDKT
RPEG
KTYA
AASG
RNHD
VNIL
IFRA
NFAR
PEQN
VDAA
LAKL
PITA
GYKG
PMHC
HSNI
VDHS

one-hybrid fitness for binding parS DNA, 0.439:
RMLN

one-hybrid fitness for binding parS DNA, 0.212:
RMYI

one-hybrid fitness for binding parS DNA, 0.236:
EKSE

one-hybrid fitness for binding parS DNA, 0.395:
RYMN

one-hybrid fitness for binding parS DNA, 0.343:
YVDR
